The results in this text go back to PubChem BioAssay AID360 (National Center for Advancing Translational Sciences (NCATS), 2006).

SMILES strings stand for the structures. The whole screen tested about 48,000 compounds, of which about 550 (1.1%) were called active. About 4% were inconclusive and are not listed. No stated cut-off is given here; in the data, active means potency below about 15 µM; inconclusive means mostly about 16 µM to 33 µM; inactive means weaker than that. The list shows a part of the results. A value given as a limit tells only on which side of the number the result lay.
Potency means the concentration at half of the fitted maximal effect.

For the experiment, the target named is Lysosomal acid glucosylceramidase (Homo sapiens) (UniProt P04062). The experiment is described as follows: Glucocerebrosidase.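 Further: the screen sought inhibitors.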 To be noted: purified enzyme, resorufin glucoside fluorescence (screen aimed at inhibitors), 20 min. The method in brief: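 Normal human glucocerebrosidase (0.2 nM final) was assayed with resorufin β-D-glucopyranoside (30 uM final) in 50mM citric acid/KH2PO4, 10mM sodium taurocholate, 0.01% tween-20, pH 5.9. Compounds were titrated; fluorescence (Ex 548, Em 600) read after 20 min at RT.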
UniProt P04062, sequence (P04062 whole entry, looked up): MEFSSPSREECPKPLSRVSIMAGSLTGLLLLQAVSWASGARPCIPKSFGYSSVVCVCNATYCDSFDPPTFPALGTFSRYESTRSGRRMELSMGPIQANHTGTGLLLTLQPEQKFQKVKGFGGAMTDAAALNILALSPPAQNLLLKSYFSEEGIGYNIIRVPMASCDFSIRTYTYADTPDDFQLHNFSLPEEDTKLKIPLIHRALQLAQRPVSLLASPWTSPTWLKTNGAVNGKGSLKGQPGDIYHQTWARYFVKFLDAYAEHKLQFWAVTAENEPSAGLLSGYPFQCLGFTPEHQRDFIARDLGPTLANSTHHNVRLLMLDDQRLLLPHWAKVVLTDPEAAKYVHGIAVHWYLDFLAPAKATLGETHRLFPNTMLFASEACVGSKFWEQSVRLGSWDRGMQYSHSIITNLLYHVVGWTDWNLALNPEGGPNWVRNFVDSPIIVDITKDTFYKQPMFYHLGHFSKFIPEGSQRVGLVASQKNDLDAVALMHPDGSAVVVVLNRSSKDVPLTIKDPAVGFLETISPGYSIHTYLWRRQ
Consider `CCCCn1c(=O)n(CC(=O)Nc2c(CC)cccc2CC)c(=O)c2c1nc(CO)n2CCC`, for which the Potency is inactive: > 76.9 µM. Under `COc1ccc(S(=O)(=O)N(C)CC(=O)N2CCC(C(N)=O)CC2)cc1` stands inactive: > 76.9 µM. Under `Cc1nc(SCC(=O)Nc2ccc3c(c2)OCCO3)c2oc3ccccc3c2n1` stands inactive: > 76.9 µM; under `CCn1c(SCC(=O)Nc2ccc(NC(C)=O)cc2)nnc1C1CC1`, inactive: > 76.9 µM. For `Fc1ccc(CSc2nnc(-c3cccnc3)n2Cc2ccco2)cc1` the value was inactive: > 76.9 µM.

`CC(C)(C)n1nnnc1C(c1cccnc1)N1CCN(C(=O)c2ccco2)CC1` (centres undefined): the Potency is inactive: > 76.9 µM. For `CC(=O)Nc1ccc(N2CCN(C(=O)c3cccs3)CC2)cc1` the value was inactive: > 76.9 µM; for `Cc1ccc(-c2noc(CCC(=O)Nc3ccc4c(c3)OCO4)n2)cc1`, inactive: > 76.9 µM; for `CC(=O)Nc1cccc(NC(=O)C2CCCN2C(=O)Nc2ccc(Cl)cc2)c1` (centres undefined), inactive: > 76.9 µM. For `COc1cccc(-c2nn(-c3ccccc3)cc2C(=O)Nc2nccs2)c1` the value was inactive: > 76.9 µM; for `CNC(=O)CCc1nc(-c2ccc(C(C)(C)C)cc2)no1`, inactive: > 76.9 µM; for `CCOC(=O)CSc1nnc(-c2ccc(NS(=O)(=O)c3ccc(C)cc3)cc2)o1`, inactive: > 76.9 µM. Under `CCN(CC)C(=O)c1sc(NC(=O)Cc2cccs2)c(C#N)c1C` stands inactive: > 76.9 µM; under `CCCS(=O)(=O)N1CCCC(C(=O)NCc2cccnc2)C1` (centres undefined), inactive: > 76.9 µM; under `Cc1ccc(C)c(-c2nnc(OCC(=O)Nc3cc(C)on3)c3ccccc23)c1`, inactive: > 76.9 µM. `COc1ccc(CCN2C(=O)C(O)=C(C(=O)c3ccco3)C2c2cccs2)cc1OC` (centres undefined): the Potency is inactive: > 76.9 µM. For `C=CCCCOc1ccc(C(=O)O)cc1` the value was inactive: > 76.9 µM.

With `COc1ccc(OC)c(NC(=O)Cn2c(=O)oc3ccccc32)c1`, the Potency was inactive: > 76.9 µM. For `Cc1cc(C)n(-c2nc3ccccc3c(=O)n2OCCOc2ccccc2)n1` the value was inactive: > 76.9 µM; for `CCCCCCC(=O)Nc1c(O)c2ccccc2[nH]c1=O`, inactive: > 76.9 µM; for `COC(=O)c1ccc(Cl)c(NC(=O)CN(c2ccc3c(c2)OCO3)S(C)(=O)=O)c1`, inactive: > 76.9 µM.

As to `Nc1nonc1C(=O)NCCNC(=O)c1cccs1`, the Potency was inactive: > 76.9 µM.

For the molecule `O=C(c1ccc(Cl)cc1)C1CCN(C(=O)N2CCOCC2)CC1`, the Potency is inactive: > 76.9 µM. `COC(=O)c1cnn(-c2ccc(C)c(C)c2)c1-n1cccc1`: the Potency is inactive: > 76.9 µM.
